Here are results for three molecules from publication PMC5663475, “SAV1 promotes Hippo kinase activation through antagonizing the PP2A phosphatase STRIPAK” (eLife, 2017).

Protein sequences, listed by entry. Tags and fused reporters are not part of them.
UniProt Q5VSL9: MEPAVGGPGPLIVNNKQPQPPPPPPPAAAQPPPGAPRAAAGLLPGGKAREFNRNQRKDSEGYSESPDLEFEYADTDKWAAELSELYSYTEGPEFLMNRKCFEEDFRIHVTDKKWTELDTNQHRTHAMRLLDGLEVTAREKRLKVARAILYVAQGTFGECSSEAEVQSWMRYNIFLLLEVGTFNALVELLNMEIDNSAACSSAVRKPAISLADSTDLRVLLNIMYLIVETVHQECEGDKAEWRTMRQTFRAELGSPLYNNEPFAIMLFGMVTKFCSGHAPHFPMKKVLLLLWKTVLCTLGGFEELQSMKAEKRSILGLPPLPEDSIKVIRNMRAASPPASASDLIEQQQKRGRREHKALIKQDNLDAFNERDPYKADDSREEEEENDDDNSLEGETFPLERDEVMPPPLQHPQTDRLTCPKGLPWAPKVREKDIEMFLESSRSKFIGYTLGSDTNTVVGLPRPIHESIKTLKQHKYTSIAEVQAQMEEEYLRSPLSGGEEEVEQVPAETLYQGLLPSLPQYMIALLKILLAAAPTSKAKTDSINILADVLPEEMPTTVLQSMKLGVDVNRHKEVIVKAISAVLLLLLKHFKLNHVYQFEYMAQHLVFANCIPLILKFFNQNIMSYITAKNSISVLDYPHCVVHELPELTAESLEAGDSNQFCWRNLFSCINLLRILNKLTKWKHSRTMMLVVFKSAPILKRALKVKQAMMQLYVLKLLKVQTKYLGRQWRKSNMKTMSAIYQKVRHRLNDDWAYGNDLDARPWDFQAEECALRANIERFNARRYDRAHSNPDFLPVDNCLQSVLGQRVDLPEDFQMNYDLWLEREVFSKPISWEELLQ

No constants are given. Whether binding was seen depends on the method and setting. For part of these data: Binding seen in cells or lysates may run through a third protein. Some entries that bind do so weakly or less than the wild type. Tags and fused reporters may be left off the sequences shown.

Assay [1] deals with T1, HA-MST2 (human) (UniProt Q13188).
T1 sequence: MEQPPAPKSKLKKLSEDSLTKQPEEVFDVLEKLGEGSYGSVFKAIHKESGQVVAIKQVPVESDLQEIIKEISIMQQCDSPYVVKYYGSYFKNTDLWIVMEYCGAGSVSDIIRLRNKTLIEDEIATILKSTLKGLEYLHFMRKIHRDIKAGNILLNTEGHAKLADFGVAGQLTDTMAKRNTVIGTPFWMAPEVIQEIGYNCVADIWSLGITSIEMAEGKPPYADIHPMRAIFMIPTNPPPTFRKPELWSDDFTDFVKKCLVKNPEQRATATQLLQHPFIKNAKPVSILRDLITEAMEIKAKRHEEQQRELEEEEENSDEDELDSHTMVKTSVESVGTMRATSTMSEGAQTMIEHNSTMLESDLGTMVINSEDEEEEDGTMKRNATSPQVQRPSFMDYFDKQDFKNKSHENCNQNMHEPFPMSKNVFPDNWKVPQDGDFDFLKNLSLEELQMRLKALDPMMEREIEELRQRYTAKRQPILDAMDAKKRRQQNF
The assay can be described thus: co-IP; anti-FLAG IP from 293FT cells co-transfected with FLAG-SLMAP and HA-MST2, with or without Myc-SAV1 overexpression.

Assay [2] concerns the target T2, FLAG-MST2 WT (human) (UniProt Q13188).
T2 sequence: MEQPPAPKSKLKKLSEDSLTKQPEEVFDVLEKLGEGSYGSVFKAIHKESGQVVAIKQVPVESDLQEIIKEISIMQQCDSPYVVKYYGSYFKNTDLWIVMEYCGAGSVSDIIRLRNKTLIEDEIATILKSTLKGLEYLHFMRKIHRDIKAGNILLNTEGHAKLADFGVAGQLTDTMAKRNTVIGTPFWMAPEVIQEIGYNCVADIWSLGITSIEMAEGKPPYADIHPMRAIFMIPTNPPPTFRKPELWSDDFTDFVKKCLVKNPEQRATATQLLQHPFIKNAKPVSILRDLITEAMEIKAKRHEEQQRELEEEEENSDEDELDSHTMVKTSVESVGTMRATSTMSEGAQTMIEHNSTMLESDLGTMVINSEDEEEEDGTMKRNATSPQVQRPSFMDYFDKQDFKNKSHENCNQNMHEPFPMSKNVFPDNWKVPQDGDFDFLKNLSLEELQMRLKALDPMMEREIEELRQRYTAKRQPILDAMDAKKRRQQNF
The assay is described as follows: co-IP; anti-FLAG IP from lysates of 293FT cells transfected with FLAG-MST2 plasmids; endogenous SLMAP detected by anti-SLMAP blot.

The target of assay [3] is T3, FLAG-MST2 T180A (human) (UniProt Q13188).
T3 sequence: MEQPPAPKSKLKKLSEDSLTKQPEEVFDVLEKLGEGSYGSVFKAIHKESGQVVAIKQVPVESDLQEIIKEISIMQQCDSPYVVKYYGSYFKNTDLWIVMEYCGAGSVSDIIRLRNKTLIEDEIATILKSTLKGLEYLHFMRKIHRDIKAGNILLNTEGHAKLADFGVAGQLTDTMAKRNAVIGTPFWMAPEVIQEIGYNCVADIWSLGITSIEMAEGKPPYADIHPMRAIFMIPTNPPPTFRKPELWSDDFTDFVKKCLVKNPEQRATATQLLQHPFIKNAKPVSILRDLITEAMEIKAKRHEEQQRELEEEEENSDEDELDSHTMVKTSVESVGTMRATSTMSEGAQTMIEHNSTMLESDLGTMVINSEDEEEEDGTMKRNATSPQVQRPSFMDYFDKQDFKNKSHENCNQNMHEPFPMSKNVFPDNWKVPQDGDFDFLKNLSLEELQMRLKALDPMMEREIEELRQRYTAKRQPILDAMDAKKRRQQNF
Described as above.

For assay [4], the target named is T4, FLAG-MST2 3TA (human) (UniProt Q13188).
T4 sequence: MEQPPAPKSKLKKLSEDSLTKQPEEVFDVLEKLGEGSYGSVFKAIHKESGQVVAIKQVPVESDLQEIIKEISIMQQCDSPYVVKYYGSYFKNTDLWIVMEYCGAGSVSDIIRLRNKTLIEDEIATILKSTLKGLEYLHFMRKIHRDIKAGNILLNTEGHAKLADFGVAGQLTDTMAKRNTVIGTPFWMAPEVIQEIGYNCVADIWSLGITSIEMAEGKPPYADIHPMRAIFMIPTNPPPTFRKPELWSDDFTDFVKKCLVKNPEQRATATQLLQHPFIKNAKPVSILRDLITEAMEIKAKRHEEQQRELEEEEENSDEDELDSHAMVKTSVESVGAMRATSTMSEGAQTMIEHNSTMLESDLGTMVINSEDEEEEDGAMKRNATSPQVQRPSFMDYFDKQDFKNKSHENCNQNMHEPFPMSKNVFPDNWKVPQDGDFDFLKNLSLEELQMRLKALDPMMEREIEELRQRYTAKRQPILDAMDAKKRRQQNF
Described as above.

The target in assay [5] is T5, FLAG-SAV1 1–90 fragment (human) (UniProt Q9H4B6).
T5 sequence: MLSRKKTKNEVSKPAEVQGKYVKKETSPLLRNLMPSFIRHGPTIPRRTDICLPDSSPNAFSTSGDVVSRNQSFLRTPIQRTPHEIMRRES
The assay can be described thus: co-IP; anti-FLAG IP from lysates of 293FT cells (control or SLMAP KO) transfected with FLAG-SAV1 fragments; endogenous partners detected by blot.

Assay [6] has as its target T6, GST-SLMAP FHA (residues 1–140) (human) (UniProt Q14BN4).
T6 sequence: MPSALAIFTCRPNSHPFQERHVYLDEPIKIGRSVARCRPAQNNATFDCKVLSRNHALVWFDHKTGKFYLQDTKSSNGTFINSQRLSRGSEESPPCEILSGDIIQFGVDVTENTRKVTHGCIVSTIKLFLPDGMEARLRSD
The assay is described as follows: pull-down; GST-SLMAP FHA on glutathione-Sepharose beads as bait, purified MST2 proteins in TBS (50 mM Tris pH 7.5, 150 mM NaCl) with 0.05% Tween, 2 h; Coomassie-stained gel; both purified.

With STRIP1 (from UniProt Q5VSL9 1-837), the binding result in assay [1] was “binds”.

B1: endogenous SLMAP (protein, UniProt Q14BN4 1-828)
chain: MPSALAIFTCRPNSHPFQERHVYLDEPIKIGRSVARCRPAQNNATFDCKVLSRNHALVWFDHKTGKFYLQDTKSSNGTFINSQRLSRGSEESPPCEILSGDIIQFGVDVTENTRKVTHGCIVSTIKLFLPDGMEARLRSDVIHAPLPSPVDKVAANTPSMYSQELFQLSQYLQEALHREQMLEQKLATLQRLLAITQEASDTSWQALIDEDRLLSRLEVMGNQLQACSKNQTEDSLRKELIALQEDKHNYETTAKESLRRVLQEKIEVVRKLSEVERSLSNTEDECTHLKEMNERTQEELRELANKYNGAVNEIKDLSDKLKVAEGKQEEIQQKGQAEKKELQHKIDEMEEKEQELQAKIEALQADNDFTNERLTALQVRLEHLQEKTLKECSSLEHLLSKSGGDCTFIHQFIECQKKLIVEGHLTKAVEETKLSKENQTRAKESDFSDTLSPSKEKSSDDTTDAQMDEQDLNEPLAKVSLLKDDLQGAQSEIEAKQEIQHLRKELIEAQELARTSKQKCFELQALLEEERKAYRNQVEESTKQIQVLQAQLQRLHIDTENLREEKDSEITSTRDELLSARDEILLLHQAAAKVASERDTDIASLQEELKKVRAELERWRKAASEYEKEITSLQNSFQLRCQQCEDQQREEATRLQGELEKLRKEWNALETECHSLKRENVLLSSELQRQEKELHNSQKQSLELTSDLSILQMSRKELENQVGSLKEQHLRDSADLKTLLSKAENQAKDVQKEYEKTQTVLSELKLKFEMTEQEKQSITDELKQCKNNLKLLREKGNNKPWPWMPMLAALVAVTAIVLYVPGLARASP
With B1, the binding entry is given as “binds” in assay [2], “no binding” in assay [3], “no binding” in assay [4] and “no binding” in assay [5].

B2: MST2-KD (MST2 kinase domain) (domain or fragment, UniProt Q13188 16-313)
chain: EDSLTKQPEEVFDVLEKLGEGSYGSVFKAIHKESGQVVAIKQVPVESDLQEIIKEISIMQQCDSPYVVKYYGSYFKNTDLWIVMEYCGAGSVSDIIRLRNKTLIEDEIATILKSTLKGLEYLHFMRKIHRDIKAGNILLNTEGHAKLADFGVAGQLTDTMAKRNTVIGTPFWMAPEVIQEIGYNCVADIWSLGITSIEMAEGKPPYADIHPMRAIFMIPTNPPPTFRKPELWSDDFTDFVKKCLVKNPEQRATATQLLQHPFIKNAKPVSILRDLITEAMEIKAKRHEEQQRELEEEE
Regarding B2, in assay [6], the binding result is “no binding”.
